Reference: patent publication US20110212845A1, “Biomarkers for predicting the sensitivity and response of protein kinase CK2-mediated diseases to CK2 Inhibitors” (priority 2009, published 2011)

What was measured:
[1] = test system: A431 xenografts; assay: A431 xenografts, erlotinib and CX-4945; type: in vivo; conditions: for tumor growth, used alone: single agent
Description: (§1) Erlotinib targets the epidermal growth factor receptor (EGFR) and is used to treat NSCLC and pancreatic cancer, amongst other cancer types.

[2] = test system: Akt-S129 phosphorylation; assay: Akt-S129 phosphorylation, CX-4945 compared with staurosporine; type: cell-based
[3] = test system: multiple myeloma cell lines; assay: VEGF secretion in multiple myeloma cell lines; type: cell-based, human; conditions: 10 μM
[4] = test system: SUM-149PT xenografts; assay: Human IL-6 plasma levels in mice bearing SUM-149PT xenografts; type: in vivo
Protocol: The effect of CK2 inhibitors on the secretion of IL-6 by aggressive SUM-149PT xenografts was also studied.
Plasma was isolated, tumors were extracted and weighted. Human IL-6 levels in plasma were determined by ELISA and resulted values were normalized for tumor weight.

[5] = target: AKT3 (Homo sapiens, UniProt Q9Y243); assay: Kinase selectivity panel, AKT3; type: biochemical
Sequence of UniProt Q9Y243 (Q9Y243 whole entry): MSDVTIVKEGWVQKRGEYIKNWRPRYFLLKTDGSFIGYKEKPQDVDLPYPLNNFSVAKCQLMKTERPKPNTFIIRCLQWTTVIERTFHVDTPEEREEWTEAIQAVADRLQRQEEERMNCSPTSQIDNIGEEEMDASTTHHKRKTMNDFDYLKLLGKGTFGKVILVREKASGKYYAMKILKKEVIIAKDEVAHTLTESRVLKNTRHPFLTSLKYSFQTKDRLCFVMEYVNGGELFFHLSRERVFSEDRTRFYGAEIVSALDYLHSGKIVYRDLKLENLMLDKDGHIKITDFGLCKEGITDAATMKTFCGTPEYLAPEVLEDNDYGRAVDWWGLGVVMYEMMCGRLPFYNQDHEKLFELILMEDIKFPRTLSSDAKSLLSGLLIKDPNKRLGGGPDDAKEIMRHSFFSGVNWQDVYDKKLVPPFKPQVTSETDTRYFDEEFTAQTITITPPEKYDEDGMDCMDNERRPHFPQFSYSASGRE

[6] = test system: BT-474 breast cancer and SK-OV-3 ovarian cancer tumors; assay: Tumor growth in breast and ovarian cancer xenograft models; type: in vivo; conditions: models of breast and ovarian cancer; 25 or 75 mg/kg bid, 35 days
[7] = test system: NCI-H1650 and NCI-H1975 cells; assay: Phosphorylation of Akt and rpS6, combination with erlotinib; type: cell-based; conditions: 10 μM CX-4945 in combination with 50 μM erlotinib
Description: as §1

[8] = target: AKT2 (Homo sapiens, UniProt P31751); assay: Kinase selectivity panel, AKT2; type: biochemical
Sequence of UniProt P31751 (P31751 whole entry): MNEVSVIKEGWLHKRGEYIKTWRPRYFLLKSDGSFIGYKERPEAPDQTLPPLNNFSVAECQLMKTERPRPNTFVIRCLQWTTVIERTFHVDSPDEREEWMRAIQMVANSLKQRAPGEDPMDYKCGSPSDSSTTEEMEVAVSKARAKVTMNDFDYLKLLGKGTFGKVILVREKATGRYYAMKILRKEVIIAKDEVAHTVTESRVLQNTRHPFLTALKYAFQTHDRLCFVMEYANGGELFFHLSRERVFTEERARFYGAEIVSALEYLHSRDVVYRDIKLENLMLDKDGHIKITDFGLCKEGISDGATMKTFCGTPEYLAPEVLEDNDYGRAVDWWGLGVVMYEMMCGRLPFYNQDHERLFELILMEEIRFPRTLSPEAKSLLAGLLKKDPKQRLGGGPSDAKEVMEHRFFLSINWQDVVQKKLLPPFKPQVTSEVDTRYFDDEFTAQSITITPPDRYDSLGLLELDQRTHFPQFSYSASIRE

[9] = Mutagenicity
[10] = target: AKT1 (Homo sapiens, UniProt P31749); assay: Kinase selectivity panel, AKT1; type: biochemical
Sequence of UniProt P31749 (P31749 whole entry): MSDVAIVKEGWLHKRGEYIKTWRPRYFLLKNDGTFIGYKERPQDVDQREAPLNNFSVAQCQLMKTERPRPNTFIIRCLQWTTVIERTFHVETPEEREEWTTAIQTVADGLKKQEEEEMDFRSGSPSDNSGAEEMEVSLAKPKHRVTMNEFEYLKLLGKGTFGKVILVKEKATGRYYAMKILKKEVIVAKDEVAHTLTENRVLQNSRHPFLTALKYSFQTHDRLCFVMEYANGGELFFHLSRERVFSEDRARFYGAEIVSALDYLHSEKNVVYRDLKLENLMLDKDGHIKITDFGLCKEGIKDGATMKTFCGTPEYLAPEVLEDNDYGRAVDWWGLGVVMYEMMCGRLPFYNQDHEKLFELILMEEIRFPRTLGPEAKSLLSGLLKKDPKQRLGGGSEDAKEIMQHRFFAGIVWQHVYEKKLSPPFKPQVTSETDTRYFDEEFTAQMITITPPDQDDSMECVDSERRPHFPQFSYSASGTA

[11] = test system: CK2 kinase activity in U266, RPMI, OCI-MY1 and KMS11 multiple myeloma cell lines; assay: In vitro kinase assay of CK2 activity in multiple myeloma cell lines; conditions: 10 μM; compared to untreated cells
[12] = test system: A2780 xenografts; assay: A2780 ovarian cancer xenografts, combination with gemcitabine; type: in vivo; conditions: gemcitabine 60 mg/kg and CX-4945 100 mg/kg
[13] = test system: BT-474 breast cancer and BxPC-3 pancreatic cancer cells; assay: PI3K/Akt signaling in BT-474 and BxPC-3 cells; type: cell-based; conditions: increasing concentrations; both cell types
[14] = test system: A431 (epidermoid carcinoma) and NCI-H2170 (lung cancer cells); assay: EGF-stimulated CK2 activity; conditions: 100 ng/ml EGF, 10 μM CX-4945; both cell types
[15] = target: hERG channel (Homo sapiens, UniProt Q12809); assay: In vitro hERG channel inhibition
[16] = target: p70S6K (Homo sapiens, UniProt P23443); assay: Kinase selectivity panel, p70S6K; type: biochemical
Sequence of UniProt P23443 (P23443 whole entry): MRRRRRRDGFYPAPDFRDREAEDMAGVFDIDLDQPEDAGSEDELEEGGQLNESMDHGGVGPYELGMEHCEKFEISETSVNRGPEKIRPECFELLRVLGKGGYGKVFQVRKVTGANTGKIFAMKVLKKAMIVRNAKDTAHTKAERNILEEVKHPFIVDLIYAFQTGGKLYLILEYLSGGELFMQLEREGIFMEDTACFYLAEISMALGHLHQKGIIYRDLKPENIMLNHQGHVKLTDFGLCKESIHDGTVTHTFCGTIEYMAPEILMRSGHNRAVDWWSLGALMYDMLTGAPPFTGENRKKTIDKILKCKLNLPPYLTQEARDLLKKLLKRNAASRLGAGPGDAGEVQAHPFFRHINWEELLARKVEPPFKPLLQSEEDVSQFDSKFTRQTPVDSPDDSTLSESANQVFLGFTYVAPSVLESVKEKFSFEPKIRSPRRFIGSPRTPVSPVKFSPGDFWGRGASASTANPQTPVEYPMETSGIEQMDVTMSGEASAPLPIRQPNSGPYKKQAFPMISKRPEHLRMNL

[17] = target: PI3K (p110β/p85α) (Homo sapiens, UniProt P42338); assay: Kinase selectivity panel, PI3K (p110β/p85α); type: biochemical
Sequence of UniProt P42338 (P42338 whole entry): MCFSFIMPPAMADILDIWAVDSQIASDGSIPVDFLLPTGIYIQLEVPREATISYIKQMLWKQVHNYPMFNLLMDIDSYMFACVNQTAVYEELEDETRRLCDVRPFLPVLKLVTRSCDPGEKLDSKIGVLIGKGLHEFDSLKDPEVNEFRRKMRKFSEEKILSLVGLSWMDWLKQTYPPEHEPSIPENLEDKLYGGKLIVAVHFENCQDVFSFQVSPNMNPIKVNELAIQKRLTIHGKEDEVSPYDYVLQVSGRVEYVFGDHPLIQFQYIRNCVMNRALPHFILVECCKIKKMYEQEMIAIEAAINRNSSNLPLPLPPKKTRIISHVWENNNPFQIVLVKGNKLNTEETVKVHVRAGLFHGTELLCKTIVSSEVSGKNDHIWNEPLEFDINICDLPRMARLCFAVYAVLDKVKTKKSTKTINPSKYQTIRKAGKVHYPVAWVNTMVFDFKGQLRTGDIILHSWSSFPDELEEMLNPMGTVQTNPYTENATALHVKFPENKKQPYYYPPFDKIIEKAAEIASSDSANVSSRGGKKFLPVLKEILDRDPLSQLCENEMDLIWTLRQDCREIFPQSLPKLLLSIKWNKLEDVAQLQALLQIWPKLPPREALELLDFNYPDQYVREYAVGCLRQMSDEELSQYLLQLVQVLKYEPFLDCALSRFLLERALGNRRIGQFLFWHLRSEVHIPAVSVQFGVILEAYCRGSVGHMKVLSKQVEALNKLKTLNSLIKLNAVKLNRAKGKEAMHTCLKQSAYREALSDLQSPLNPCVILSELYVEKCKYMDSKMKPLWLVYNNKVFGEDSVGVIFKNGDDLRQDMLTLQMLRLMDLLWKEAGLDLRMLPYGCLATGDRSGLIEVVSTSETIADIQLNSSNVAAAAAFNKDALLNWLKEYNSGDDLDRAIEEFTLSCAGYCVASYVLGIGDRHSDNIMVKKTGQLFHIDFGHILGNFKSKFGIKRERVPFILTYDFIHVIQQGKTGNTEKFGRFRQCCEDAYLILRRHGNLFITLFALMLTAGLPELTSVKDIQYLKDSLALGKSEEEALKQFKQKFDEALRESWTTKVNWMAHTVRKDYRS
Sequence of UniProt P42338 (P27986 whole entry partner): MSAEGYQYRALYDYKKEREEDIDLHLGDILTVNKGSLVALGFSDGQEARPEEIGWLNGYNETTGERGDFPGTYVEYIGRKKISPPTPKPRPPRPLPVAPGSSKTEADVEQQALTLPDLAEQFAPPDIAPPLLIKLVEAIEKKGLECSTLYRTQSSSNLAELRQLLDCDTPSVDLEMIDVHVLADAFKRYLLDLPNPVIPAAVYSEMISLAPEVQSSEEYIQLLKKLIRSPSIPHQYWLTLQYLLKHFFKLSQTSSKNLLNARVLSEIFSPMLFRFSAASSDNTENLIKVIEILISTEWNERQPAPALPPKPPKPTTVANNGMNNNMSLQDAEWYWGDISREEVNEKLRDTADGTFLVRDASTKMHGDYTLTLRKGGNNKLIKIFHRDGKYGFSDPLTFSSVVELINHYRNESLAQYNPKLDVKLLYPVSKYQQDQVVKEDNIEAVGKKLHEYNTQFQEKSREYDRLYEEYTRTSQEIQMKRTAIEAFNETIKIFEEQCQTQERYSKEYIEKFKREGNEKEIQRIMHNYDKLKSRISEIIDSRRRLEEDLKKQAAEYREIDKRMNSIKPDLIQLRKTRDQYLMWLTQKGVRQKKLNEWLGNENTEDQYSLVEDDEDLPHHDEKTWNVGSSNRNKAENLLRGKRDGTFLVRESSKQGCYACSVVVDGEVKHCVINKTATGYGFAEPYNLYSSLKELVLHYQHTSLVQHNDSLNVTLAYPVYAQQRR

[18] = test system: BxPC3 pancreatic cancer xenografts; assay: BxPC3 pancreatic cancer xenografts, tolerability; type: in vivo; conditions: 12.5-75 mg/kg bid over 35 days
[19] = test system: BxPC-3 cells; assay: Tube formation and migration; type: cell-based; conditions: increasing concentrations
[20] = target: PI3K (p110δ/p85α) (Homo sapiens, UniProt O00329); assay: Kinase selectivity panel, PI3K (p110δ/p85α); type: biochemical
Sequence of UniProt O00329 (O00329 whole entry): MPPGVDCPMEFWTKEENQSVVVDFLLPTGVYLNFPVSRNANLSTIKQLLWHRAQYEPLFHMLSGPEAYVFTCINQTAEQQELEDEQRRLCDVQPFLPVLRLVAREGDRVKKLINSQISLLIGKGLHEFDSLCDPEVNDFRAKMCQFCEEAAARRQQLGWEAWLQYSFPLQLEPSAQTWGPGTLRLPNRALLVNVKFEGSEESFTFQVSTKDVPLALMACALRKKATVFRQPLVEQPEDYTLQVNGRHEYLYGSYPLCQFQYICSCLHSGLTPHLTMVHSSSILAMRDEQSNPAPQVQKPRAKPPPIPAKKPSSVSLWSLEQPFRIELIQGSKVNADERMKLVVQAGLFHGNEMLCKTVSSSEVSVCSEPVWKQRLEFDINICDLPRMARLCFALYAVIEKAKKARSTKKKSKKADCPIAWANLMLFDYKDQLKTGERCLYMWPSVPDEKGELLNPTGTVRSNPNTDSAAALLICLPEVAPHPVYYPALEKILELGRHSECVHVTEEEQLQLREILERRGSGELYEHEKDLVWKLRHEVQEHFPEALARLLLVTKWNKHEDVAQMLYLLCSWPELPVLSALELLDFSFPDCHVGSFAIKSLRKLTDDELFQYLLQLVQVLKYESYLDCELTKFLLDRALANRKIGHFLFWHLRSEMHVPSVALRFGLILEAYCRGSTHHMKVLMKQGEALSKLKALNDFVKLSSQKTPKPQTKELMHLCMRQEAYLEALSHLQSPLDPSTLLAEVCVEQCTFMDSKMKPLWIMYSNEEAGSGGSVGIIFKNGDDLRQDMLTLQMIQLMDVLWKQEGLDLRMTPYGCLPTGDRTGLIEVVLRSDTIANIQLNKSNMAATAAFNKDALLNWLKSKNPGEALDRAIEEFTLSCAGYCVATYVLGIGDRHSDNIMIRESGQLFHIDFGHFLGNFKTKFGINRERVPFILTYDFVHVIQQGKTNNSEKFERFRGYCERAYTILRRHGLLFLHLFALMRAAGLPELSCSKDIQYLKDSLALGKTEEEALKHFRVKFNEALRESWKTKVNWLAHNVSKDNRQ
Sequence of UniProt O00329 (P27986 whole entry partner): as the sequence (P27986 whole entry partner) above

[21] = target: PDK1 (Homo sapiens, UniProt O15530); assay: Kinase selectivity panel, PDK1; type: biochemical
[22] = target: PI3K (p120γ) (Homo sapiens, UniProt P48736); assay: Kinase selectivity panel, PI3K (p120γ); type: biochemical
[23] = test system: human multiple myeloma cells; assay: CK2 signaling in human multiple myeloma cells; type: cell-based
[24] = test system: cancer cells and normal fibroblast cells; assay: Caspase 3/7 apoptosis induction in cancerous versus normal cells; type: cell-based
Description: The X-axis illustrates the cell type. BT-474: breast cancer cells; Mia PaCa 2 and BxPC3-3: pancreatic cancer cells; SK-OV-3 and A2780: ovarian cancer cells; A375: melanoma cells; CCD18Co: normal colon fibroblast cells; CCD1058 and CCD1068: normal skin fibroblast cells; and Mrc5 and IMR90: normal lung fibroblast cells.

[25] = test system: IL-6 and IL-8; assay: Phase I clinical study, IL-6 and IL-8 levels; type: in vivo, human
Protocol: (§2) Oral doses are administered twice daily for twenty-one consecutive days of a four week cycle. […] Response by RECIST is determined after every 2 cycles. Serial blood and plasma samples are collected on the first and final dosing days of Cycle 1 (i.e., Day 1 and Day 21) for pharmacokinetic analysis and for pharmacodynamic biomarker evaluations (specifically, total and phosphorylated forms of p21 and Akt).

[26] = test system: HIF-1α; assay: HIF-1α luciferase reporter assay; conditions: increasing concentrations
[27] = target: mTOR (Homo sapiens, UniProt P42345); assay: Kinase selectivity panel, mTOR; type: biochemical
[28] = target: CLK3 (Homo sapiens, UniProt P49761); assay: Kinase selectivity panel, CLK3; type: biochemical
[29] = test system: Akt S129 phosphorylation; assay: Akt S129 phosphorylation with washout; conditions: 10 μM, 4 and 8 hours
[30] = test system: A2780 ovarian cancer cells; assay: Comet assay of gemcitabine-induced DNA damage; type: cell-based; conditions: in combination with gemcitabine
[31] = test system: U266 multiple myeloma cells; assay: IL-6 production in U266 multiple myeloma cells; type: cell-based, human
[32] = Oral availability across species; conditions: in vivo, read-out: % F (oral availability)
[33] = test system: 5 CYP isoforms; assay: In vitro CYP inhibition; type: in vitro ADME
[34] = test system: Akt-S129, Akt-S473 and p21-T145 phosphorylation in PBMCs; assay: Phase I clinical study, phospho-biomarkers in PBMCs; type: in vivo, human; conditions: as a function of cumulative AUC
Protocol: as §2
Oral doses are administered four times daily for twenty-one consecutive days of a four week cycle. […] Response by RECIST is determined after every 2 cycles. […]
In addition, PBMCs were isolated to analyze p21 Total, p21-T145, Akt Total, Akt-T129, and Akt-S473 at time 0, 4 and 8 hours post dose on Day 1 and Day 21. PBMCs were analyzed as a whole and also separated into phenotypes (CD19, CD45). For each time point, the ratio of p21-T145/Total p21, Akt-S129/Total Akt, and Akt-S473/Total Akt was calculated.
In addition, PBMCs were isolated to analyze, p-p21-T145, p-Akt-S129, and p-Akt-S473 at time 0, 4 and 8 hours post dose on Day 1 and Day 21 for the BID dosing schedule and at time 0, 2, 4 and 6 hours post dose on Day 1 and Day 8 for the QID dosing schedule. PBMCs were analyzed as a whole and also separated into phenotypes (CD19, CD45).

C#Cc1cccc(Nc2ncnc3cc(OCCOC)c(OCCOC)cc23)c1 [erlotinib, reference compound]
tumor growth, used alone [1]: significant inhibition of tumor growth

CN[C@@H]1C[C@H]2O[C@@](C)([C@@H]1OC)n1c3ccccc3c3c4c(c5c6ccccc6n2c5c31)C(=O)NC4 [STS, staurosporine, reference compound]
phosphorylation of Akt-S129 [2]: did not affect the phosphorylation

O=C(O)c1ccc2c(c1)nc(Nc1cccc(Cl)c1)c1ccncc12 [CX-4945]
secretion of VEGF [3]: reduced the secretion of VEGF | reduction of human IL-6 levels in plasma ([4]; 75 mg/kg PO BID×8d, normalized for tumor weight): 58% | reduction in human IL-6 plasma levels ([4]; xenograft model, depending on tumor size, 50 mg/kg BID PO×3 d, 75 mg/kg PO daily or BID×8 d): 40-60% | IC50 [5]: > 500 nM | tumor growth in vivo [6]: inhibit tumor growth | phosphorylation of Akt and rpS6 [7]: reduces the phosphorylation of Akt and rpS6 | IC50 [8]: > 500 nM | mutagenicity [9]: non-mutagenic | IC50 [10]: > 500 nM | CK2 kinase activity in multiple myeloma cell lines [11]: significantly reduced CK2 kinase activity | anti-tumor activity of the combination with gemcitabine [12]: synergistic anti-tumor activity | levels of p-Akt S129, p-Akt S473 and p-p21 T145 [13]: reduced the levels of p-Akt S129 and p-Akt S473, as well as p-p21 T145 | EGF-stimulated CK2 activity (p-Akt S129, p-Akt S473) [14]: significantly inhibit EGF-stimulated CK2 activity | in vitro inhibition of the hERG channel [15]: no significant in vitro inhibition | IC50 [16]: > 500 nM | IC50 [17]: > 500 nM | tolerability [18]: well tolerated | phosphorylation of Akt-S129 [2]: inhibited phosphorylation of Akt-S129 | tube formation and migration [19]: significant effects on tube formation and migration | IC50 [20]: > 500 nM | IC50 [21]: > 500 nM | IC50 [22]: > 500 nM | PARP cleavage (marker for cell apoptosis) [23]: increase PARP cleavage | phosphorylation of Akt S129 and S473 [23]: reduced the phosphorylation of p-Akt S129 and S473 | phosphorylation of NF-κB S529 [23]: reduced the phosphorylation | phosphorylation of STAT3 Y705 and JAK2 Y1007/1008 [23]: reduce the phosphorylation of p-STAT3 Y705 and p-JAK2 Y1007/1008 | apoptosis (Caspase 3/7 activity) in cancer cells ([24]; cancer cells): induces significant levels of apoptosis in cancer cells | apoptosis (Caspase 3/7 activity) in normal cells ([24]; normal cells): remain unaffected | serum IL-6 levels in patients ([25]; inflammatory breast cancer and prostate cancer patients, after 21 days of dosing): marked reduction in serum IL-6 levels | IL-8 levels in patients ([25]; patients with prostate, thyroid/papillary and Leydig cell tumors): reduced significantly | HIF-1α activity (luciferase reporter) [26]: decreasing activity of HIF-1α | IC50 [27]: > 500 nM | IC50 [28]: 41 nM | reversibility of inhibition of Akt S129 phosphorylation [29]: reversible | gemcitabine induced DNA damage (comet assay) [30]: increase gemcitabine induced DNA damage | production of IL-6 [31]: reduce the production of IL-6 | bioavailability [32]: 20 to 48% | anti-tumor activity of the combination with erlotinib ([1]; erlotinib and CX-4945 combined): synergistic anti-tumor activity | tumor growth, used alone [1]: significant inhibition of tumor growth | in vitro inhibition of 5 CYP isoforms [33]: no significant in vitro inhibition | phosphorylation of Akt-S129, Akt-S473 and p21-T145 in patient PBMCs [34]: decreases in a clear exposure-related (AUC) manner
